Results as given in the supplement of paper PMC8948288.
The sequences are guide strands of siRNAs; only the seed at positions 2 to 7 varies.

How the values were obtained:
H4 = assay: cell viability relative to siNT1 (ATP content); H4 human neuroglioma and GL261 mouse glioma; higher = less toxic; settings: siRNA concentration 10 nM; 96 h; human
GL261 = assay: as above; settings: siRNA concentration 25 nM; 96 h; mouse
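Further: cells reverse transfected with siRNA duplexes via lipid reagent, ATP read by luminescence, triplicate wells, values scaled to mean viability with non-targeting control siNT1.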

| Sequence | cell viability (H4) [%] | cell viability (GL261) [%] |
| --- | --- | --- |
| UGGGCAGACAUGUAAACCA | 13 | 12 |
| UGGGCAUACAUGUAAACCA | 34 | 21.9 |
| UGGGCCAACAUGUAAACCA | 30.7 | 44.8 |
| UGGGCCCACAUGUAAACCA | 29.2 | 21.6 |
| UGGGCCGACAUGUAAACCA | 10.1 | 17.8 |
| UGGGCCUACAUGUAAACCA | 13 | 10 |
| UGGGCGAACAUGUAAACCA | 34.4 | 16.5 |
| UGGGCGCACAUGUAAACCA | 42.2 | 14.4 |
| UGGGCGGACAUGUAAACCA | 5.8 | 11.3 |
| UGGGCGUACAUGUAAACCA | 27.4 | 14.9 |
| UGGGCUAACAUGUAAACCA | 20.5 | 20.3 |
| UGGGCUCACAUGUAAACCA | 20.8 | 7.28 |
| UGGGCUGACAUGUAAACCA | 9.28 | 14 |
| UGGGCUUACAUGUAAACCA | 43.9 | 26.3 |
| UGGGGAAACAUGUAAACCA | 38.7 | 43.1 |
| UGGGGACACAUGUAAACCA | 8.06 | 13.2 |
| UGGGGAGACAUGUAAACCA | 20.4 | 17.5 |
| UGGGGAUACAUGUAAACCA | 27.2 | 13.5 |
| UGGGGCAACAUGUAAACCA | 9.51 | 21.9 |
| UGGGGCCACAUGUAAACCA | 8.28 | 11.5 |
| UGGGGCGACAUGUAAACCA | 13.1 | 10.7 |
| UGGGGCUACAUGUAAACCA | 6.06 | 11.8 |
| UGGGGGAACAUGUAAACCA | 7.99 | 12 |

| Sequence | cell viability (H4) [%] | cell viability (GL261) [%] |
| --- | --- | --- |
| UGGGGGCACAUGUAAACCA | 5.58 | 14 |
| UGGGGGGACAUGUAAACCA | 4.82 | 54.6 |
| UGGGGGUACAUGUAAACCA | 4.87 | 11.3 |
| UGGGGUAACAUGUAAACCA | 32.3 | 20.9 |
| UGGGGUCACAUGUAAACCA | 20.7 | 10.6 |
| UGGGGUGACAUGUAAACCA | 10 | 6.38 |
| UGGGGUUACAUGUAAACCA | 32.1 | 24 |
| UGGGUAAACAUGUAAACCA | 40.1 | 25.6 |
| UGGGUACACAUGUAAACCA | 66.4 | 48.2 |
| UGGGUAGACAUGUAAACCA | 21.4 | 9.11 |
| UGGGUAUACAUGUAAACCA | 43.8 | 18.4 |
| UGGGUCAACAUGUAAACCA | 44.2 | 16.8 |
| UGGGUCCACAUGUAAACCA | 28.2 | 7.68 |
| UGGGUCGACAUGUAAACCA | 27.3 | 13 |
| UGGGUCUACAUGUAAACCA | 27.6 | 9.61 |
| UGGGUGAACAUGUAAACCA | 12.4 | 13.7 |
| UGGGUGCACAUGUAAACCA | 11.6 | 9.87 |
| UGGGUGGACAUGUAAACCA | 4.54 | 16.8 |
| UGGGUGUACAUGUAAACCA | 34.5 | 20.9 |
| UGGGUUAACAUGUAAACCA | 61.4 | 39.3 |
| UGGGUUCACAUGUAAACCA | 70.1 | 11.6 |
| UGGGUUGACAUGUAAACCA | 37.5 | 54.8 |
| UGGGUUUACAUGUAAACCA | 82.3 | 65.4 |

| Sequence | cell viability (H4) [%] | cell viability (GL261) [%] |
| --- | --- | --- |
| UGGUAAAACAUGUAAACCA | 104 | 54 |
| UGGUAACACAUGUAAACCA | 48 | 37.5 |
| UGGUAAGACAUGUAAACCA | 98.3 | 39.8 |
| UGGUAAUACAUGUAAACCA | 66.5 | 42.1 |
| UGGUACAACAUGUAAACCA | 59.4 | 34.7 |
| UGGUACCACAUGUAAACCA | 59.1 | 24.4 |
| UGGUACGACAUGUAAACCA | 62.3 | 39.5 |
| UGGUACUACAUGUAAACCA | 43.9 | 17.8 |
| UGGUAGAACAUGUAAACCA | 54.6 | 19.7 |
| UGGUAGCACAUGUAAACCA | 33.7 | 26.7 |
| UGGUAGGACAUGUAAACCA | 21.8 | 10.3 |
| UGGUAGUACAUGUAAACCA | 23.4 | 14.9 |
| UGGUAUAACAUGUAAACCA | 86.9 | 57.8 |
| UGGUAUCACAUGUAAACCA | 25.9 | 21.5 |
| UGGUAUGACAUGUAAACCA | 60.5 | 59.8 |
| UGGUAUUACAUGUAAACCA | 60.1 | 44.7 |
| UGGUCAAACAUGUAAACCA | 49 | 28 |
| UGGUCACACAUGUAAACCA | 49.5 | 11.5 |
| UGGUCAGACAUGUAAACCA | 49.5 | 21.8 |
| UGGUCAUACAUGUAAACCA | 69.5 | 17.1 |
| UGGUCCAACAUGUAAACCA | 39.6 | 54.4 |
| UGGUCCCACAUGUAAACCA | 8.82 | 8.28 |
| UGGUCCGACAUGUAAACCA | 38.8 | 8.62 |

| Sequence | cell viability (H4) [%] | cell viability (GL261) [%] |
| --- | --- | --- |
| UGGUCCUACAUGUAAACCA | 22.8 | 14 |
| UGGUCGAACAUGUAAACCA | 57.7 | 38.9 |
| UGGUCGCACAUGUAAACCA | 38.2 | 16 |
| UGGUCGGACAUGUAAACCA | 25.3 | 10.7 |
| UGGUCGUACAUGUAAACCA | 51.3 | 12.9 |
| UGGUCUAACAUGUAAACCA | 77.9 | 59.4 |
| UGGUCUCACAUGUAAACCA | 57.2 | 38.8 |
| UGGUCUGACAUGUAAACCA | 33.3 | 53.6 |
| UGGUCUUACAUGUAAACCA | 45 | 25.6 |
| UGGUGAAACAUGUAAACCA | 53.1 | 40.7 |
| UGGUGACACAUGUAAACCA | 21.8 | 12.4 |
| UGGUGAGACAUGUAAACCA | 15.8 | 21.9 |
| UGGUGAUACAUGUAAACCA | 40 | 32.5 |
| UGGUGCAACAUGUAAACCA | 34.3 | 29.5 |
| UGGUGCCACAUGUAAACCA | 7.45 | 8 |
| UGGUGCGACAUGUAAACCA | 36.2 | 24.8 |
| UGGUGCUACAUGUAAACCA | 21 | 15.9 |
| UGGUGGAACAUGUAAACCA | 16.6 | 21 |
| UGGUGGCACAUGUAAACCA | 17.2 | 42.7 |
| UGGUGGGACAUGUAAACCA | 6.26 | 7.18 |
| UGGUGGUACAUGUAAACCA | 5.7 | 14.1 |
